Measurements published in article PMC4336329 (PLoS ONE, 2015).
Out of some 310,000 compounds screened, about 14,000 (4.5%) showed an effect of 50% or more. Effects have a minus sign here. This is one part of the list.

Target: human ether-à-go-go-related gene (hERG) potassium channel (human, UniProt Q12809)
Assay: primary screen, population patch clamp on CHO cells stably expressing hERG
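Further: peak tail current of the secondary pulse compared with the same well before compound.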

Sequence of human ether-à-go-go-related gene (hERG) potassium channel (Q12809 whole entry, looked up): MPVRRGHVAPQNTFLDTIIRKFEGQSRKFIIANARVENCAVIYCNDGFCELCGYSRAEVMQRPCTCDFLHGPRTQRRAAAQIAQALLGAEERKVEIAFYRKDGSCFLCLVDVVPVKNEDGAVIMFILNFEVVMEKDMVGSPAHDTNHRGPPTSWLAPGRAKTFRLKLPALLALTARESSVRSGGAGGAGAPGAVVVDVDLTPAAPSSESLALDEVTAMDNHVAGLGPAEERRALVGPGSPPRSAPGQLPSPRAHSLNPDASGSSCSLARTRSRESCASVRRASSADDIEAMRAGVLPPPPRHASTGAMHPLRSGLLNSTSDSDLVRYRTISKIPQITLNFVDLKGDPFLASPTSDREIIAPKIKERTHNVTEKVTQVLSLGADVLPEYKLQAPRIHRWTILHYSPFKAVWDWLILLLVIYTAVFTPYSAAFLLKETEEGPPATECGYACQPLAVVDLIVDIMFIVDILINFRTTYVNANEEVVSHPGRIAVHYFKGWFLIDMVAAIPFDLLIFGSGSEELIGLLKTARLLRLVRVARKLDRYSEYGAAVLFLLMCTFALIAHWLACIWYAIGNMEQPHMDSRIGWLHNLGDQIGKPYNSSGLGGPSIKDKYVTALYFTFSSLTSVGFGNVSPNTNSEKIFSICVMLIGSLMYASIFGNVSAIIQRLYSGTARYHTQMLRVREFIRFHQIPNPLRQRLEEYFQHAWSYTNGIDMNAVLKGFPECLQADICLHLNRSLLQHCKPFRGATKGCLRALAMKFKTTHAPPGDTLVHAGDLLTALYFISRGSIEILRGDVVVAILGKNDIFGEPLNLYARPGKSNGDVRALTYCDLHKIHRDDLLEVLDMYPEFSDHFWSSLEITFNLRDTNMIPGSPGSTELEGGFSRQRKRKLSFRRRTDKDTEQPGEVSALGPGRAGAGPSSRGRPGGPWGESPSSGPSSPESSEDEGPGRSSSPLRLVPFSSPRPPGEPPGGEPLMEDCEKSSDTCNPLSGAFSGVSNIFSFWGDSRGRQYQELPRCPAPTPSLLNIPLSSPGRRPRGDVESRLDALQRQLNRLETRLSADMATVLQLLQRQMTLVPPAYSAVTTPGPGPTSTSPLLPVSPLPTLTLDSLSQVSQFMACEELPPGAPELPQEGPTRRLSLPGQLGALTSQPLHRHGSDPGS

Row | Compound | hERG current change (%, negative = inhibition) at 10uM
1 | CCC1Sc2ccc(S(=O)(=O)Nc3cc(OC)cc(OC)c3)cc2NC1=O (stereo not shown) | 3.4%
2 | COC(=O)c1scc(S(=O)(=O)C(C)(C)C)c1N | 5.79%
3 | COc1ccc(-c2csc(COC(=O)C(C)(C)C)n2)cc1 | 18%
4 | O=C(N=C1N=C2C=CC=CN2Cc2ccccc21)c1ccc(S(=O)(=O)N2CCCC2)cc1 | 13.8%
5 | O=C(COC(=O)CNC(=O)c1ccccc1F)Nc1ncc(Cl)cc1Cl | -3.8%
6 | CC1(C)C=Cc2c(ccc3c2OC[C@H](c2ccc(O)cc2O)C3)O1 | 17.7%
7 | Cc1ccc(C(=O)CSc2nc(C(C)C)nc3ccccc23)cc1 | 20.6%
8 | CC(C)(C)NS(=O)(=O)c1ccc(CCC(=O)N2CCCCC2)cc1 | -10.2%
9 | COc1cc(OC)c(OC)cc1CNC1CCCCCC1 | -5.57%
10 | CCn1c(SCC(=O)Nc2ccccc2OC)nnc1-c1cnccn1 | -25.4%
11 | CS(=O)(=O)CCC(C(=O)OCc1ccc(Br)cc1)N1C(=O)c2ccccc2C1=O (stereo not shown) | -0.0845%
12 | COc1nc2ccccc2c(=O)n1-c1ccc(C)cc1 | -2.06%
13 | CCCCn1c(N)c(N(CC(C)C)C(=O)CC(NC(=O)c2ccccc2)c2ccccc2)c(=O)[nH]c1=O (stereo not shown) | 1.68%
14 | Cc1ccccc1N1CCN(C2CCCN(C(=O)CCc3c(C)noc3C)C2)CC1 (stereo not shown) | -46.3%
15 | O=C(NCC(=O)N(c1ccccc1)C(C(=O)NC1CCCC1)c1ccncc1)c1cccs1 (stereo not shown) | 12.1%
16 | CC1(C)O[C@@H]2[C@H](O1)[C@@H](COS(=O)(=O)[O-])O[C@H]2n1cnc2c(N)ncnc21.[K+] | 15.7%
17 | CCC/C(=C1/c2ccccc2C(=O)N1c1ccccc1)c1ccc2c(c1)OCCO2 | 20.3%
18 | COc1cccc(/C=N/NC(=O)c2ccc(N3CCCC3=O)cc2)c1 | -19.8%
19 | CC(SC1=NCCN1S(=O)(=O)c1ccc(F)cc1)c1ccccc1 (stereo not shown) | 11.9%
20 | CCOc1cccc(NC(=O)C2CC(=O)N(C)C(=Nc3ccccc3)S2)c1 (stereo not shown) | 1.54%
21 | COc1cccc(N2CC34C=CC(O3)C(C(=O)O)C4C2=O)c1 (stereo not shown) | 17.8%
22 | COc1ccc(N2CCN(CC(=O)N3N=CCC3c3ccccc3)CC2)cc1 (stereo not shown) | -2.49%

Row | Compound | hERG current change (%, negative = inhibition) at 10uM
23 | CN(C(=O)c1c(Cl)cnn1C)C12CC3CC(CC(C3)C1)C2 | -7.48%
24 | Cc1cc(OC(=O)c2c(C)cc(O)cc2O)cc(O)c1C(=O)O | 20.9%
25 | COc1cccc(/C=C/C(=O)N2CCN(S(=O)(=O)c3ccccc3)CC2)c1OC | -7.35%
26 | O=C(N/N=C1/CCS(=O)(=O)c2ccc(F)cc21)c1cccnc1 | 32.6%
27 | CN1CCN(c2cc3c(c4c2[nH]c2ccccc24)C(=O)CC(C)(C)C3)CC1.Cl | -16.8%
28 | COc1ccc(N2CCN(C(=O)c3cn(C4CCCC4)c(=O)c4c3c3ccccc3n4C)CC2)cc1 | -6.9%
29 | O=C(c1cccs1)N1CCN(S(=O)(=O)N2CCOCC2)CC1 | -18.9%
30 | c1ccc2nc(-c3nc4ccccc4[nH]3)ccc2c1 | 11.1%
31 | CCOC(=O)c1c(NC(=O)CN(CC)CC)sc2c1CCN(C(=O)OCC)C2 | -22.2%
32 | CC(Cc1ccccc1)Nc1ncnc2c1ncn2C1OC(CO)C(O)C1O (stereo not shown) | 0.256%
33 | COc1cccc(-c2nc(-c3ccccc3)nc(N3CCN(C)CC3)c2C#N)c1 | 10.7%
34 | COc1ccc2c(CC(=O)Nc3nnc(C4CC4)s3)coc2c1 | -10%
35 | O=C(NNC(=O)C1CC1)c1ccccc1[N+](=O)[O-] | 7.73%
36 | CSCCC(NC(=O)c1ccccc1)C(=O)NCc1ccc(S(N)(=O)=O)cc1 (stereo not shown) | 21.2%
37 | Cc1cc(-c2nnc(CCC(=O)N(C)C(C)c3cccs3)o2)no1 (stereo not shown) | -4.74%
38 | CSc1nnc(CNC(=O)c2ccccc2)n1-c1ccc(F)cc1 | 16.7%
39 | O=c1c2ccccc2nc2n1CCS2(=O)=O | 14.2%
40 | Cc1nn(C)c(C(=O)NC(=S)Nc2ccccc2Br)c1Cl | 17.1%
41 | CC1(c2ccccc2Cl)NC(=O)N(CC(=O)Nc2ccccc2OC(F)F)C1=O (stereo not shown) | -9.08%
42 | C=CCNc1nc(-c2ccc([N+](=O)[O-])cc2)cs1 | -12%
43 | Cc1cccn2c(=O)nc(SCC(=O)N3CCOCC3)nc12 | 9.72%
